# Publication PMC4336329 (PLoS ONE, 2015)
# About 2,200 (0.71%) of roughly 310,000 compounds showed an effect of 50% or more. Effects have a minus sign here. The list shows a part of the results.
# Target: human ether-à-go-go-related gene (hERG) potassium channel (human, UniProt Q12809)
# Test: primary screen, population patch clamp on CHO cells stably expressing hERG
# Chain of human ether-à-go-go-related gene (hERG) potassium channel (Q12809 whole entry, looked up): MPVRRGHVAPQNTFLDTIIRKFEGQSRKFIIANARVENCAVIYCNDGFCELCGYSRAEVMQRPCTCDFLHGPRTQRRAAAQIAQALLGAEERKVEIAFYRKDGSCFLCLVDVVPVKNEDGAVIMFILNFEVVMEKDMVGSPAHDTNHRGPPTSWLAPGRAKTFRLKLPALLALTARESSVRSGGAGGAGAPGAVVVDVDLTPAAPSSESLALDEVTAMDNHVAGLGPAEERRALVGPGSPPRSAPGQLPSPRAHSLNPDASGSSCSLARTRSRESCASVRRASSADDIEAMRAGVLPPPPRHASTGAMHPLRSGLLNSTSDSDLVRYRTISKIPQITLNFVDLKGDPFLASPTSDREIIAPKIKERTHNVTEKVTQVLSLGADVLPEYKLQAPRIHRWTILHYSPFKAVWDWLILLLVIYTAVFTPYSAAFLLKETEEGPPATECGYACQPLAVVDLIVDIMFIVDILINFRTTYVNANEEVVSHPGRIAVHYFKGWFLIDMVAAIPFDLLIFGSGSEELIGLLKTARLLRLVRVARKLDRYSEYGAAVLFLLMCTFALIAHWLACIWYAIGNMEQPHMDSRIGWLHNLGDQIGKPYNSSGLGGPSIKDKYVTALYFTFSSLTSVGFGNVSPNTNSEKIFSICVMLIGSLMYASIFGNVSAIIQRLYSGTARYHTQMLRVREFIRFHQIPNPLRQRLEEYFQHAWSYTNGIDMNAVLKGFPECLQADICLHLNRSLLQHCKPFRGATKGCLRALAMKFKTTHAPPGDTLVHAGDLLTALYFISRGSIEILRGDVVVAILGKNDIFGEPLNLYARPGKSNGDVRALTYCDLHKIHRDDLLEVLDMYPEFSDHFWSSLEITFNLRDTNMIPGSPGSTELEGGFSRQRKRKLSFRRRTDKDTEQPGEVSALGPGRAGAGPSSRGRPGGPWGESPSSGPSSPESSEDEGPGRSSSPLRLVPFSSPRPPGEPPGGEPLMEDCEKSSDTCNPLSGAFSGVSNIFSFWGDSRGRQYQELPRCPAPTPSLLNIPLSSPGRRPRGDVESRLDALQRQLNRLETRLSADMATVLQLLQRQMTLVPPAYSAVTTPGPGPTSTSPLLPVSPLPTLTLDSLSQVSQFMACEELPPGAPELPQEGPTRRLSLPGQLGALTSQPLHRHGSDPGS
row,Structure (SMILES),"hERG current change (%, negative = inhibition) at 1uM"
1,COc1cccc(OC)c1C(=O)Nc1cccc(-c2ccc(N3CCOCC3)nn2)c1,18.3%
2,CCOC(=O)C1CCCN(C(=O)c2cnn3c(C(F)(F)F)cc(-c4ccccc4)nc23)C1 (centres unmarked),9.29%
3,Cc1ccc(S(=O)(=O)N(C)C)cc1NC(=O)COC(=O)CCC(=O)c1ccc(F)cc1,8.22%
4,Cc1ccc(-c2nc(N)sc2CC(=O)OCC(=O)N2C(C)CCCC2C)cc1 (centres unmarked),1.93%
5,O=C(NC(=S)NCCc1ccccc1)c1ccccc1F,13.7%
6,Cc1cc(S(=O)(=O)N2CCN=C2c2ccccc2)c(C)cc1Cl,4.74%
7,Cc1cc(C)n2nc(C(=O)N(C)C(c3ccccc3)c3ccccc3)nc2n1,5.96%
8,COCCOC(=O)/C(=C\c1cc(C(C)(C)C)c(O)c(C(C)(C)C)c1)C(C)=O,-1.13%
9,Cc1cn(-c2ccccc2)c(C)c1/C=N\Nc1nc(N2CCOCC2)nc(N2CCOCC2)n1,-0.321%
10,Cc1cccc(Nc2ncnc3c2cnn3Cc2ccccc2)c1,10.2%
11,CC(Cc1cccc(C(F)(F)F)c1)NCCOC(=O)c1ccccc1 (centres unmarked),2.87%
12,COc1ccc(NC(=O)CN2CC(C)OC(C)C2)cc1Cl (centres unmarked),28.7%
13,COc1ccc(S(=O)(=O)N2CCOC2CNC(=O)C(=O)NCCCN2CCOCC2)cc1OC (centres unmarked),8.89%
14,Cc1cccc(C)c1NC(=O)C(c1ccccc1)N1CCOCC1 (centres unmarked),12.5%
15,COc1ccc(NC(=O)Nc2ccccc2C(N)=O)cc1OC,11.4%
16,O=C(CNc1cccc2ccccc12)N/N=C/C=C/c1ccco1,4.13%
17,COc1cccc(NC(=O)CN2C(=O)NC(C)(CC(C)C)C2=O)c1 (centres unmarked),11.4%
18,CCCCOC(=O)c1ccc(NC(=O)CSC2=Nc3ccccc3C3CC=NN23)cc1 (centres unmarked),19.2%
19,O=C(CN(Cc1ccc(F)cc1)C(=O)CCC(=O)Nc1ccccn1)NCc1ccco1,-3.24%
20,CCN(CC)S(=O)(=O)c1ccc(N2CCCC2)c(NC(=O)Cc2c(F)cccc2Cl)c1,12.7%
21,NC(=O)COC(=O)c1c2c(nc3ccccc13)CCC2,16.2%
22,COc1ccc(C2=Nn3c(nnc3-c3ccc(OC)cc3)SC2)cc1,-23.1%
23,CCOCCCN1C(=O)CN(C2CCC(C)CC2)C(=O)C1c1ccc(C)cc1 (centres unmarked),0.255%

row,Structure (SMILES),"hERG current change (%, negative = inhibition) at 1uM"
1,COc1ccc(S(=O)(=O)N2CCC3(CC2)CC(=O)c2ccccc2O3)cc1OC,15.2%
2,CCOC(=O)C1CCN(S(=O)(=O)c2cc(Cl)c(C)cc2OC)CC1,3.53%
3,CCOc1ccc2nc(NC(=O)C3CCN(C(=O)c4ccco4)CC3)sc2c1,10.8%
4,COC(=O)c1cc2ccsc2n1Cc1ccccc1F,-2.01%
5,O=C(CSc1nc2c(c(=O)n1-c1ccc(Cl)cc1)SCC2)N1CCCC1,3.91%
6,CN1CCN(c2ccc(NC(=O)Cc3ccccc3)cc2)CC1,7.46%
7,CCC(=O)N1CCc2cc(S(=O)(=O)N3CCc4ccccc43)ccc21,4.8%
8,COCCCNc1nc2nonc2nc1N(C)CC1CCCN1C (centres unmarked),7.38%
9,COc1ccc(C(=O)NC(=S)Nc2cccc3cc(O)ccc23)cc1OC,14.1%
10,COc1ccc(NC(C)=O)cc1NC(=O)CN1CCN(CC(=O)Nc2ccccc2Cl)CC1,-14.3%
11,CCn1c(CC(=O)Nc2ccccc2F)nnc1SCC(=O)Nc1nncs1,6.77%
12,CCOc1ccc(N2C(=O)CC(=O)NC2=O)cc1,16.5%
13,Cn1nc(C(F)(F)F)c(-c2ccc(Br)cc2)c1NC(=O)c1nccnc1C(=O)O,15.8%
14,COc1cccc(NC(=O)N2CCC(C(N)=O)(N3CCCCC3)CC2)c1,8.81%
15,O=C(CSc1ccc(-c2ccccn2)nn1)c1ccc(F)cc1,10.7%
16,Cc1ccc(CNC(=O)Cn2cncn2)cc1,12.4%
17,Cc1ccc(S(=O)(=O)N2CC[C@@H]2C(=O)O)cc1,9.58%
18,CCc1ccc(-c2cc(C)no2)cc1S(=O)(=O)NCc1ccc(OC)c(OC)c1,11.9%
19,CCN(c1ccc(C)c(C)c1)S(=O)(=O)c1c(C)[nH]c(=O)[nH]c1=O,14.9%
20,Cc1[nH]c(=S)c(C#N)c(C)c1C(=O)Nc1ccccc1,13%
21,CCCCN(CC)CCNC(=O)c1cc2c(-c3ccccc3F)nn(C)c2s1,-0.295%
22,O=[N+]([O-])c1cc(-c2ncccn2)cs1,8.85%
23,O=C1c2ccccc2NC(c2cn[nH]c2-c2ccc(Cl)cc2)N1O (centres unmarked),6.82%

row,Structure (SMILES),"hERG current change (%, negative = inhibition) at 1uM"
1,O=C(CCc1ccc(Oc2cc([N+](=O)[O-])cc([N+](=O)[O-])c2)cc1)NC1CCCC1,0.484%
2,CCOc1ccc(N2C(=O)C(=O)/C(=C(/O)c3ccccc3)C2c2ccccc2[N+](=O)[O-])cc1 (centres unmarked),15%
3,CN(CC(=O)Nc1ccc(SC(F)F)cc1)C1CCCCC1,-41.9%
4,CC(=O)C12C3C4C(C5C1C3C5(Br)C41OCCO1)C21OCCO1 (centres unmarked),12.4%
5,Nc1c(Cl)ncnc1NCCc1ccc(O)cc1,9.02%
6,CC(=O)c1cccc(NC(=O)NNC(=O)c2ccc(Cl)cc2Cl)c1,8.81%
7,CC(=O)c1cc(C#N)c(SCC(=O)Nc2nccs2)nc1C,18.9%
8,CCSc1nnc(-c2ccc(Cl)cc2Cl)o1,15.5%
9,CS(=O)(=O)N1CCN(c2ccccc2[N+](=O)[O-])CC1,10.7%
10,Cc1nnsc1C(=O)NC1CCCc2c1cnn2-c1ccc(F)cc1F (centres unmarked),18.2%
11,CCOC(=O)c1ccc(NS(=O)(=O)c2cc(-c3nnnn3CC)ccc2OC)cc1,13.7%
12,COc1ccccc1/C=C/C=N\N1CCN(Cc2ccccc2Cl)CC1.Cl,8.19%
13,Cc1ccc(OCCNS(=O)(=O)c2ccc(N3CCCC3=O)cc2)cc1,7.63%
14,Cc1cc(C(F)F)nn1CC(=O)NCc1ccco1,18.1%
15,CCc1ccc(C(=O)Nc2nc3ccccc3[nH]2)cc1,12.4%
16,O=C(CSc1nnc(-c2ccco2)n1-c1ccccc1)NCCc1ccccc1,-29.6%
17,O=C(O)/C=C/c1cccc2c1OCCO2,-4.76%
18,CCC(=O)N1CCN(c2ccc(NC(=S)NC(=O)COc3ccccc3)cc2)CC1,-9.33%
19,O=C(CSCc1ccccc1)N1CCc2ccccc21,7.33%
20,CC1Oc2ccccc2N(CC(=O)c2cccc(Cl)c2)C1=O (centres unmarked),-1.55%
21,COC(=O)c1cc(OC)nc2ccc(Br)cc12,2.46%
22,O=C(CSc1ccc(Br)cc1)N1CCN(S(=O)(=O)c2ccccc2)CC1,0.246%
23,Cc1cccnc1NC(=O)CSc1ccc2c(c1)OCCO2,8.52%

row,Structure (SMILES),"hERG current change (%, negative = inhibition) at 1uM"
1,Br.O=S1(=O)C=CC(Sc2nc3ccccc3[nH]2)C1 (centres unmarked),6.35%
2,COc1ccc(C2C(C#N)=C(N)OC3=C2C(=O)CC(C)(C)C3)cc1Cn1cc([N+](=O)[O-])cn1 (centres unmarked),-1.19%
3,O=C(NC1CCCC1)C(c1ccc(F)cc1)N(Cc1ccc(F)cc1)C(=O)CCl (centres unmarked),10.9%
4,CSc1nc(-c2ccccc2)nc(NC(=O)C(C)C)c1C(C)=O,8.87%
5,CC(C)(C)Sc1ccc(/C=N/O)cc1[N+](=O)[O-],11.5%
6,COc1ccc(S(=O)(=O)N2CCN(C)CC2)c2ccccc12,9.59%
7,CC(=O)Nc1ccc(OCC(O)CN2CCN(c3ccc(Cl)cc3)CC2)cc1 (centres unmarked),-0.944%
8,Cc1ccc(CNC(=O)CSc2nc3ccccc3c(=O)n2CCCO)cc1,-51.3%
9,CCC(=O)Nc1sc(C(=O)N2CCCCC2)c(C)c1C#N,5.29%
10,CN(Cc1ccccc1)c1nc2c(c(=O)[nH]c(=O)n2C)n1C,4.57%
11,COc1ccc(CNC(=O)COc2cc(=O)n(C)c3ccccc23)cc1,7.49%
12,Cc1cccc(N2CCCn3c2nc2c3c(=O)n(CCN3CCOCC3)c(=O)n2C)c1,17.4%
13,CCCCn1c(=O)c(CCC(=O)OCC(=O)Nc2cc(Cl)ccc2OC)nc2ccccc21,12.6%
14,CO[C@@]12[C@H](COC(N)=O)C3=C(C(=O)C(C)=C(N)C3=O)N1C[C@@H]1N[C@@H]12,7.86%
15,O=C(COc1ccc(S(=O)(=O)NCc2ccccc2)cc1Cl)NCc1ccccn1,8.36%
16,COc1ccc(N(CC(=O)NCCC2=CCCCC2)S(=O)(=O)c2ccc(C)cc2)cc1OC,-1.21%
17,N#CC1=C(N)Oc2n[nH]c(-c3ccccn3)c2C1c1c(F)cccc1Cl (centres unmarked),-0.473%
18,CC(=O)Oc1ccc2c(C)cc(=O)oc2c1,9.62%
19,COC(=O)c1ccc(NC(=O)CSC2=NC(=O)C(c3ccccc3)C(=O)N2)cc1 (centres unmarked),-1.58%
20,CCOP(=S)(OCC)N1CCOCCOCCN(P(=S)(OCC)OCC)CCOCCOCC1,2.15%
